The values below come from paper PMC4094278, “The Dictyostelium discoideum RACK1 orthologue has roles in growth and development” (Cell Communication and Signaling : CCS, 2014).

In test [1] the target is T1, D. discoideum G protein α10-subunit fused to the GAL4 DNA-binding domain (pAS2-1) (D. discoideum) (UniProt Q55EP5).
T1 sequence: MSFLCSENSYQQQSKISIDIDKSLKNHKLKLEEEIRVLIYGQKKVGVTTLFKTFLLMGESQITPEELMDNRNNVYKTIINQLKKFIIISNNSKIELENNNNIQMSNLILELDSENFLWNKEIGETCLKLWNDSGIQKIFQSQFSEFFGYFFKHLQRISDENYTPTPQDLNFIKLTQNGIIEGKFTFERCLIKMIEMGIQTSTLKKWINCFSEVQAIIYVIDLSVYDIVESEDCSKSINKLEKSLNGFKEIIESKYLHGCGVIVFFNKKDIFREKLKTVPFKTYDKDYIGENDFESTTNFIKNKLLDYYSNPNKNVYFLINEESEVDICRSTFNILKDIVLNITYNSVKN
In words: two-hybrid; yeast Y190; DdRACK1 in pACT2 (GAL4 AD), G protein subunits in pAS2-1 (GAL4 BD); growth on SD/-Leu/-Trp/-His/+3AT plates and colony-lift β-galactosidase assay read at 1 to 6 h and after 24 h.

The target of test [2] is T2, D. discoideum G protein α2-subunit fused to the GAL4 DNA-binding domain (pAS2-1) (D. discoideum) (UniProt P16051).
T2 sequence: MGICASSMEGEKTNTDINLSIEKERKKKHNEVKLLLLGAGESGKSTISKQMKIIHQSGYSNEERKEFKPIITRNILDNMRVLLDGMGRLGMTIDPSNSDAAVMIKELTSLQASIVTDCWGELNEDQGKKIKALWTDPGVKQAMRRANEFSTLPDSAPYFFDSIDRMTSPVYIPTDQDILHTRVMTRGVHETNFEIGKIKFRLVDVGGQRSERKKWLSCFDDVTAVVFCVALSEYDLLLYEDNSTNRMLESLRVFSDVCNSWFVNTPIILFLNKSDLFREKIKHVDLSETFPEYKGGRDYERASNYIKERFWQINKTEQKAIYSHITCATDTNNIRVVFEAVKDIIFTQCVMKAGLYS
Described as above.

These are yes or no findings as the source states them, for the method shown. Some binding calls cover weakened binding; strength is not graded here. Sequences can lack the tags named with a protein.

B1: DdRACK1 fused to the GAL4 activation domain (pACT2) (protein, UniProt P46800 1-329)
chain: MEQQKAPQVTYLEVGSLVGHNGFVTSIAVSPENPDTIISSSRDKTVMVWQLTPTDATSPGKAHRSLKGHSHFVQDVVISHDGQFALSGSWDNTLRLWDITKGVSTRLFKGHTQDVMSVAFSSDNRQIISGSRDATIKVWNTLGECKFTLEGPEAHQDWVSCIRFSPNTPTIVSGSWDNKVKIWDIKSFKCNHTLTDHTGYVNTVTISPDGSLCASGGKDTFACLWELSSGKPLYKLEARNTINALAFSPNKYWLSAATDDKIIIWDLLTKQVLAEIVPEVKEQAFDSKKKKESKPKAPACLSLAWSADGSVLYAGYNDGLIRVYKSSSQ
Turning to B1, the binding entry was “no binding” in test [1] and “binds” in test [2].
